# The campaign covered roughly 340,000 compounds. About 6,900 (2%) were called active. No stated cut-off is given here; in the data, active means inhibition above about 30%; inactive means below that, where a call was filed. The entries are a selection whose mix differs from that of the whole data set. Where no call is shown, the source filed none.
# Target: D(2) dopamine receptor (Homo sapiens) (UniProt P14416)
# Assay: HTS Assay for Allosteric Antagonists of the Human D2 Dopamine Receptor: Primary Screen for Antagonists; further: 0% is about no effect
# Settings: HEK293 TREx D2 cells, calcium flux, dopamine EC80; at 10 µM; stronger effect = higher value
# How it was run: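 Compounds are added to dye-loaded, induced HEK293 T-REx cells coupled to calcium release via D2; after a 3 min kinetic read an EC80 dopamine stimulus is given and fluorescence is recorded for 3 more min.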
# UniProt P14416, sequence (P14416 whole entry, looked up): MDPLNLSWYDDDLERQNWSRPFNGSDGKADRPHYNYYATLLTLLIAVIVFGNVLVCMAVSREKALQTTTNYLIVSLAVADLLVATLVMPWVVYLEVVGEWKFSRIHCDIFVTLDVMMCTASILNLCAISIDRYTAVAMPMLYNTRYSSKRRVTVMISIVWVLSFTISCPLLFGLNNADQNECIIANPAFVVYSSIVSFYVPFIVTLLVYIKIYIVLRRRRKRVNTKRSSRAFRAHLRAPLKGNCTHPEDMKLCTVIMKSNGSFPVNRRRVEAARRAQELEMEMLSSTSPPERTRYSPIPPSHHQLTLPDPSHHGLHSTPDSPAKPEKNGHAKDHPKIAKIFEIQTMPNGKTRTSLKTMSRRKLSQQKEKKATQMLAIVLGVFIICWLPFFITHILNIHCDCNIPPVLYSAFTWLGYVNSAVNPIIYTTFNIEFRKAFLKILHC
row,SMILES,inhibition
1,CC1CCN(CCCCOc2cccc(C(C)C)c2)CC1,active: 58.2%
2,CCc1ccc(S(=O)(=O)NCc2cccn2Cc2cccc(C)c2)cc1,-1.23%
3,CCc1ccccc1NC(=O)c1cc(-c2ccc(OC)cc2)on1,-1.85%
4,CC1=C(C(=O)Nc2cc(Cl)ccc2C)C(c2ccccc2F)n2ncnc2N1 (stereo unspecified),6.08%
5,COc1cc(C(=O)Nc2sc3c(c2C(N)=O)CCC(C)C3)cc(OC)c1OC (stereo unspecified),3.66%
6,CN(C)S(=O)(=O)c1ccc(Cl)c(NC(=O)C2CCN(S(=O)(=O)c3cccs3)CC2)c1,active: 31.1%
7,CCn1c(=O)c(=O)n(CC)c2cc(N3CCCCC3)c(NC(=O)c3ccc(OC)c(OC)c3)cc21,-25.3%
8,COc1ccc(-n2c(SCC(=O)Nc3ccccc3)nc3c(c2=O)SCC3)cc1,active: 31.4%
9,COc1ccc(CCNC(=O)CSc2cc(=O)n(C)c3ccccc23)cc1OC,7.28%
10,COc1cccc(C(=O)N(Cc2ccc(N(C)C)cc2)Cc2ccco2)c1,4.34%
11,O=C(CSc1nc2c([nH]c3ccccc32)c(=O)n1-c1ccc(Cl)cc1)NCc1ccccc1,21.1%
12,Clc1ccc(C[n+]2cc(-c3ccc(Cl)cc3)n3c2CCC3)cc1,active: 44.4%
13,O=C(CCCCCn1c(=O)[nH]c2ccccc2c1=O)NCCc1ccccc1,2.24%
14,COc1ccc(Cl)cc1NC(=O)CN(c1cccc(C)c1C)S(C)(=O)=O,8.67%
15,Cc1cccc(S(=O)(=O)c2cn(Cc3ccc(F)cc3)c3cc(N4CCCCC4)c(F)cc3c2=O)c1,-3.83%
16,COc1ccccc1N1CCN(CCCNC(=O)Nc2ccccc2)CC1,active: 101%
17,Cc1ccc(NC(=O)COC(=O)c2ccc(CN3CCCC3=O)cc2)c(Cl)c1,active: 34.8%
18,COc1ccc(CCNC(=O)Cn2c(=O)c3sccc3n(CC(=O)Nc3cccc(C(F)(F)F)c3)c2=O)cc1OC,-27.5%
19,O=C(NCc1cccc(Cl)c1)c1cnc(N2CCCCC2)c2ccccc12,-10.3%
20,Cc1cccc(N2CCN(c3ncnc4onc(C)c34)CC2)c1C,-5.6%
21,CCc1ccc(C2N=C(N)Nc3nc4ccccc4n32)cc1 (stereo unspecified),21.7%

row,SMILES,inhibition
1,Cc1ccc(-n2ncc(C(=O)NCCc3ccsc3)c2C2CCN(C(=O)OC(C)(C)C)CC2)c(C)c1,-12%
2,COc1ccc(Cl)cc1NC(=O)C(OC)c1ccccc1 (stereo unspecified),active: 30%
3,CCCCNC(=O)CN1C(=O)CSc2ccc(S(=O)(=O)N3CCC(C)CC3)cc21,-4.45%
4,CC(=O)c1cccc(N(C(=O)Cn2nnc3ccccc32)C(C(=O)NCc2ccccc2)c2ccc(F)cc2)c1 (stereo unspecified),11.6%
5,Cc1ccc(NC(=O)CN(C)S(=O)(=O)c2ccc3c(c2)CCC(=O)N3)c(C)c1,4.88%
6,Cc1cc(NC(=O)CSc2nc(-c3ccco3)cc(C(F)(F)F)n2)no1,active: 36%
7,Cc1ccc(CN2CCCn3nc(C(=O)NCc4ccccc4Cl)cc3C2=O)cc1,5.41%
8,CCCN1CCN(c2ncc3c(n2)CCN(Cc2ccc(OC)c(OC)c2OC)C3)CC1,-6.83%
9,Cc1ccc(NC(=O)Cn2nc(-c3ccc(F)cc3)c3cnc4ccc(C)cc4c32)cc1,4.49%
10,COc1ccccc1-c1noc(-c2ccc(N(C)Cc3ccccc3)c([N+](=O)[O-])c2)n1,22%
11,CCCCN(CC)C(=O)CCn1c(=O)c2cccn2c2cccnc21,4.16%
12,COc1ccccc1C(=O)c1c(N)c(-c2nc(-c3ccccc3)cs2)c2ccccn12,1.24%
13,CCOc1ccc(CNCc2c(C(=O)O)c(C)n(Cc3ccc(F)cc3Cl)c2C)cc1,16.8%
14,CCN1CCN(C(=O)c2ccc3c(c2)N(Cc2ccccc2)C(=O)c2ccccc2S3=O)CC1 (stereo unspecified),17.3%
15,Cc1nn(CCCC(=O)NCc2cccc(F)c2)c(=O)c2nn(-c3ccccc3)c(C)c12,0.216%
16,COc1ccc(OC)c(-c2nc(C(N)=O)c3c(n2)n(-c2ccc4c(c2)OCO4)c(=O)n3C)c1,5.25%
17,S=C(NCCc1ccccc1)NC1CC2CCC(C1)N2Cc1ccccc1 (stereo unspecified),active: 62.7%
18,CCOC(=O)c1c(S(=O)(=O)NCC(=O)Nc2ccc(Cl)c(C(F)(F)F)c2)c(C)n(C)c1C,7.55%
19,CCCCc1nn2c(=O)cc(COC(=O)c3cccc(NC(=O)c4cccc(C)c4)c3)nc2s1,6.97%
20,CSc1ncc(Cl)c(C(=O)Nc2nc3ccc(F)cc3s2)n1,-1.03%
21,Cc1nnc(SC(C)C(=O)Nc2ccc(S(=O)(=O)NC3CCCCC3)cc2)s1 (stereo unspecified),active: 61.3%

row,SMILES,inhibition
1,COc1cccc(NC(=O)CN(Cc2ccccc2)S(=O)(=O)c2ccc3nc(C)sc3c2)c1,-4.53%
2,Cc1nc2ccc(C(=O)N3CCCC(CO)(Cc4ccc(F)cc4F)C3)cc2nc1C (stereo unspecified),active: 30.1%
3,CC(C)c1nnc(NC(=O)c2nc(SCc3ccc(F)cc3)ncc2Cl)s1,-1.2%
4,Cc1cc2n(n1)CCCN2C(=O)Nc1ccc(Cl)cc1,-20%
5,CCCSc1ncc(Cl)c(C(=O)Nc2sc3c(c2C(=O)NCC)CCCC3)n1,14.6%
6,CCCn1ccc2c(OCC(=O)NCc3ccc(F)cc3)cccc2c1=O,-17.7%
7,Cc1cccc(-n2c(=O)c3c(n4cnnc24)-c2ccccc2CC32CCCCC2)c1,active: 31.4%
8,CCCCN(C)CC(O)Cn1cc(/C=C/C(=O)c2ccc(OC)c(OC)c2)c2ccccc21 (stereo unspecified),3.16%
9,Cc1ccc(-c2nc(S(=O)(=O)c3ccc(Cl)cc3)c(N3CCCCC3)o2)cc1,-18.5%
10,Cc1nn(C)c2ncc(C(=O)c3ccccc3O)cc12,active: 47.9%
11,COc1ccc(CNC(=O)Cn2nnc(-c3ccccc3F)n2)cc1,-9.36%
12,CCc1cc2c(cc3c(=O)n(CC(=O)N4CCCCC4)nc(CC)n32)s1,-0.203%
13,COc1ccc(Cl)cc1C(=O)Nc1ccc2oc(-c3ccc(C(C)(C)C)cc3)nc2c1,-2.01%
14,CCOc1ccc(S(=O)(=O)N2CCN(S(=O)(=O)c3ccc(C(C)=O)cc3)CC2)cc1,active: 35.7%
15,Cc1cc(NC(=O)c2ccc(-c3ccc(Br)cc3)o2)cc(-c2nc3ncccc3o2)c1O,6.1%
16,Cc1ccc2nc(Cl)c3cc(C(=O)NCCCN4CCC(C)CC4)sc3c2c1,14.9%
17,COc1ccc(NC(=O)Cc2csc(COc3cccc(C)c3)n2)cc1OC,1.43%
18,Cc1ccc(C)c(S(=O)(=O)c2nnn3c2nc(NCc2cccs2)c2sccc23)c1,17.4%
19,COc1ccc2c(c1)c1c(c(=O)n(-c3ccccc3)c(=O)n1CC(=O)Nc1ccc(F)cc1)n2C,-3.31%

# From PubChem BioAssay AID485344 (National Center for Advancing Translational Sciences (NCATS), 2010)
